From a compilation of properties of binary mixtures (doi:10.1007/s10953-021-01072-9)
Some of these densities may be calculated back from excess volumes.

Test: xn = mol fraction of the nth substance listed
Settings: 101.3 kPa

CCCC[N+]1(C)CCCC1.N#C[C-](C#N)C#N + O
Settings | mass density [kg/m3]
293.15 K, x2 = 0 | 1008.5
293.15 K, x2 = 0.0734 | 1008.4
293.15 K, x2 = 0.2046 | 1007.7
293.15 K, x2 = 0.3056 | 1007.2
293.15 K, x2 = 0.3806 | 1006.9
293.15 K, x2 = 0.5091 | 1006.3
293.15 K, x2 = 0.6071 | 1005.9
293.15 K, x2 = 0.6987 | 1005.7
293.15 K, x2 = 0.8009 | 1005.6
303.15 K, x2 = 0 | 1003.2
303.15 K, x2 = 0.0734 | 1002.7
303.15 K, x2 = 0.2046 | 1001.9
303.15 K, x2 = 0.3056 | 1001.3
303.15 K, x2 = 0.3806 | 1000.8
303.15 K, x2 = 0.6987 | 999.1
303.15 K, x2 = 0.8009 | 998.9
313.15 K, x2 = 0 | 997.4
313.15 K, x2 = 0.313 | 995.1
313.15 K, x2 = 0.397 | 994.5
313.15 K, x2 = 0.5171 | 993.6
313.15 K, x2 = 0.6069 | 993.1
313.15 K, x2 = 0.6976 | 992.5
313.15 K, x2 = 0.8005 | 992.3
323.15 K, x2 = 0 | 991.5
323.15 K, x2 = 0.2139 | 989.8
323.15 K, x2 = 0.313 | 989.1
323.15 K, x2 = 0.5171 | 987.3
323.15 K, x2 = 0.6069 | 986.7
323.15 K, x2 = 0.6976 | 986
323.15 K, x2 = 0.8005 | 985.3

CCCC[n+]1ccc(C)cc1.N#C[C-](C#N)C#N + O
mass density [kg/m3]
Settings | x2 = 0 | x2 = 0.1362 | x2 = 0.22 | x2 = 0.3297 | x2 = 0.4198 | x2 = 0.5254 | x2 = 0.6313 | x2 = 0.7156 | x2 = 0.8096
293.15 K | 1038 | – | 1036.5 | 1035.3 | 1034.2 | 1032.7 | – | 1029 | 1026
303.15 K | – | 1030.9 | 1030 | 1028.8 | 1027.6 | 1026 | 1024 | 1022 | 1019.1
313.15 K | – | 1024.6 | 1023.7 | – | 1021.1 | 1019.4 | 1017.2 | 1015.2 | 1012
323.15 K | 1020.1 | 1018.5 | 1017.5 | 1016.1 | 1014.7 | 1012.9 | – | 1008.3 | –

CCCC[n+]1ccn(C)c1.N#C[C-](C#N)C#N + O
Settings | mass density [kg/m3]
293.15 K, x2 = 0 | 1050.5
293.15 K, x2 = 0.2063 | 1047.7
293.15 K, x2 = 0.5025 | 1042.3
293.15 K, x2 = 0.5971 | 1040.2
293.15 K, x2 = 0.7035 | 1037.2
293.15 K, x2 = 0.8016 | 1033.6
303.15 K, x2 = 0.1497 | 1041.5
303.15 K, x2 = 0.1986 | 1040.7
303.15 K, x2 = 0.3091 | 1039.2
303.15 K, x2 = 0.5999 | 1033.9
303.15 K, x2 = 0.6982 | 1031.1
303.15 K, x2 = 0.8004 | 1027.3
313.15 K, x2 = 0 | 1039.6
313.15 K, x2 = 0.1412 | 1038
313.15 K, x2 = 0.2063 | 1037
313.15 K, x2 = 0.3051 | 1035.5
313.15 K, x2 = 0.3932 | 1033.9
313.15 K, x2 = 0.5025 | 1032
313.15 K, x2 = 0.7035 | 1026.7
323.15 K, x2 = 0.1412 | 1028.3
323.15 K, x2 = 0.2063 | 1027.2
323.15 K, x2 = 0.3051 | 1025.6
323.15 K, x2 = 0.3932 | 1023.6
323.15 K, x2 = 0.5014 | 1021.5
323.15 K, x2 = 0.6977 | 1016.4
323.15 K, x2 = 0.8 | 1012.4
